This is one part of the list.
Assays:
Experiment in all cases: glycan array binding signal (z-score within array); higher = stronger binding
Conditions in all cases: glycan notation: IUPAC condensed, linker removed
[1] = target: Neu5Ac(a2-6)Gal(b1-4)GlcNAc6S
In short: (§1)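 From the Consortium for Functional Glycomics database, 3228 arrays were curated, keeping only those whose protein sequence was available. Binding is given as a within-array Z-score averaged across arrays sharing a protein sequence and across linkers. Negative Z-scores can be read as non-binding.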

Neu5Ac(a2-6)GalNAc = target: Neu5Ac(a2-6)GalNAc
In short: as §1

[2] = target: Neu5Ac(a2-6)GalNAc(b1-4)GlcNAc
In short: as §1

[3] = target: Neu5Ac(a2-6)GalNAc(b1-4)GlcNAc6S
In short: as §1

[4] = target: Neu5Ac(a2-6)GlcNAc(b1-4)GlcNAc
In short: as §1

[5] = target: Neu5Ac(a2-6)GlcNAc(b1-4)GlcNAc(b1-4)GlcNAc
In short: as §1

Neu5Ac(a2-8)Neu5Ac = target: Neu5Ac(a2-8)Neu5Ac
In short: as §1

[6] = target: Neu5Ac(a2-8)Neu5Ac(a2-3)Gal(b1-3)GalNAc(b1-4)[Neu5Ac(a2-3)]Gal(b1-4)Glc
In short: as §1

[7] = target: Neu5Ac(a2-8)Neu5Ac(a2-3)Gal(b1-3)GalNAc(b1-4)[Neu5Ac(a2-8)Neu5Ac(a2-3)]Gal(b1-4)Glc
In short: as §1

[8] = target: Neu5Ac(a2-8)Neu5Ac(a2-3)Gal(b1-4)Glc
In short: as §1

[9] = target: Neu5Ac(a2-8)Neu5Ac(a2-3)Gal(b1-4)GlcNAc
In short: as §1

[10] = target: Neu5Ac(a2-8)Neu5Ac(a2-3)[Gal(b1-3)GalNAc(b1-4)]Gal(b1-4)Glc
In short: as §1

[11] = target: Neu5Ac(a2-8)Neu5Ac(a2-3)[GalNAc(b1-4)]Gal(b1-4)Glc
In short: as §1

[12] = target: Neu5Ac(a2-8)Neu5Ac(a2-8)Neu5Ac
In short: as §1

[13] = target: Neu5Ac(a2-8)Neu5Ac(a2-8)Neu5Ac(a2-3)Gal(b1-4)Glc
In short: as §1

[14] = target: Neu5Ac(a2-8)Neu5Ac(a2-8)Neu5Ac(a2-3)[Gal(b1-3)GalNAc(b1-4)]Gal(b1-4)Glc
In short: as §1

[15] = target: Neu5Ac(a2-8)Neu5Ac(a2-8)Neu5Ac(a2-3)[GalNAc(b1-4)]Gal(b1-4)Glc
In short: as §1

[16] = target: Neu5Ac(a2-8)Neu5Ac(a2-8)Neu5Ac(a2-8)Neu5Ac(a2-3)[GalNAc(b1-4)]Gal(b1-4)Glc
In short: as §1

[17] = target: Neu5Ac(a2-8)Neu5Gc(a2-3)Gal(b1-4)GlcNAc
In short: as §1

Neu5Ac(b1-6)GalNAc = target: Neu5Ac(b1-6)GalNAc
In short: as §1

[18] = target: Neu5Ac(b2-6)Gal(b1-4)GlcNAc
In short: as §1

Neu5Ac(b2-6)GalNAc = target: Neu5Ac(b2-6)GalNAc
In short: as §1

[19] = target: Neu5Ac9Ac(a2-3)Gal(b1-3)GlcNAc
In short: as §1

[20] = target: Neu5Ac9Ac(a2-3)Gal(b1-4)GlcNAc
In short: as §1

[21] = target: Neu5Ac9Ac(a2-6)Gal(b1-4)GlcNAc
In short: as §1

[22] = target: Neu5Gc(a2-3)Gal(b1-3)GlcNAc
In short: as §1

[23] = target: Neu5Gc(a2-3)Gal(b1-3)[Fuc(a1-4)]GlcNAc
In short: as §1

Neu5Gc(a2-3)Gal(b1-4)Glc = target: Neu5Gc(a2-3)Gal(b1-4)Glc
In short: as §1

[24] = target: Neu5Gc(a2-3)Gal(b1-4)GlcNAc
In short: as §1

[25] = target: Neu5Gc(a2-3)Gal(b1-4)GlcNAc(b1-3)Gal(b1-4)GlcNAc(b1-2)Man(a1-3)[Neu5Gc(a2-3)Gal(b1-4)GlcNAc(b1-3)Gal(b1-4)GlcNAc(b1-2)Man(a1-6)]Man(b1-4)GlcNAc(b1-4)GlcNAc
In short: as §1

[26] = target: Neu5Gc(a2-3)Gal(b1-4)[Fuc(a1-3)]GlcNAc
In short: as §1

[27] = target: Neu5Gc(a2-6)Gal(b1-4)GlcNAc
In short: as §1

Neu5Gc(a2-6)GalNAc = target: Neu5Gc(a2-6)GalNAc
In short: as §1

[28] = target: Neu5Gc(a2-8)Neu5Ac(a2-3)Gal(b1-4)GlcNAc
In short: as §1

[29] = target: Neu5Gc(a2-8)Neu5Gc(a2-3)Gal(b1-4)GlcNAc
In short: as §1

[30] = target: Neu5Gc(a2-8)Neu5Gc(a2-3)Gal(b1-4)GlcNAc(b1-3)Gal(b1-4)GlcNAc
In short: as §1

[31] = target: Neu5Gc(a2-8)Neu5Gc(a2-6)Gal(b1-4)GlcNAc
In short: as §1

[32] = target: Neu5Gc(b2-6)Gal(b1-4)GlcNAc
In short: as §1

B1: LCA (Lens culinaris), P02870 (protein)
chain: MASLQTQMISFYLIFLSILLTTIFFFKVNSTETTSFSITKFSPDQKNLIFQGDGYTTKGKLTLTKAVKSTVGRALYSTPIHIWDRDTGNVANFVTSFTFVIDAPSSYNVADEFTFFIAPVDTKPQTGGGYLGVFNSKEYDKTSQTVAVEFDTFYNAAWDPSNKERHIGIDVNSIKSVNTKSWNLQNGERANVVIAFNAATNVLTVTLTYPNSLEEENVTSYTLNEVVPLKDVVPEWVRIGFSATTGAEFAAHEVHSWSFHSELGGTSSSKQAADA
glycan array binding signal (z-score) [1]: -0.23
glycan array binding signal (z-score) (Neu5Ac(a2-6)GalNAc): -0.232
glycan array binding signal (z-score) [2]: -0.233
glycan array binding signal (z-score) [3]: -0.258
glycan array binding signal (z-score) [4]: -0.232
glycan array binding signal (z-score) [5]: -0.231
glycan array binding signal (z-score) (Neu5Ac(a2-8)Neu5Ac): -0.217
glycan array binding signal (z-score) [6]: -0.268
glycan array binding signal (z-score) [7]: -0.192
glycan array binding signal (z-score) [8]: -0.26
glycan array binding signal (z-score) [9]: -0.237
glycan array binding signal (z-score) [10]: -0.222
glycan array binding signal (z-score) [11]: -0.23
glycan array binding signal (z-score) [12]: -0.222
glycan array binding signal (z-score) [13]: -0.167
glycan array binding signal (z-score) [14]: -0.237
glycan array binding signal (z-score) [15]: -0.054
glycan array binding signal (z-score) [16]: -0.183
glycan array binding signal (z-score) [17]: -0.196
glycan array binding signal (z-score) (Neu5Ac(b1-6)GalNAc): -0.223
glycan array binding signal (z-score) [18]: -0.229
glycan array binding signal (z-score) (Neu5Ac(b2-6)GalNAc): -0.246
glycan array binding signal (z-score) [19]: -0.217
glycan array binding signal (z-score) [20]: -0.012
glycan array binding signal (z-score) [21]: -0.209
glycan array binding signal (z-score) [22]: -0.238
glycan array binding signal (z-score) [23]: -0.207
glycan array binding signal (z-score) (Neu5Gc(a2-3)Gal(b1-4)Glc): -0.226
glycan array binding signal (z-score) [24]: -0.219
glycan array binding signal (z-score) [25]: -0.193
glycan array binding signal (z-score) [26]: -0.232
glycan array binding signal (z-score) [27]: -0.177
glycan array binding signal (z-score) (Neu5Gc(a2-6)GalNAc): -0.234
glycan array binding signal (z-score) [28]: -0.225
glycan array binding signal (z-score) [29]: -0.258
glycan array binding signal (z-score) [30]: -0.218
glycan array binding signal (z-score) [31]: -0.243
glycan array binding signal (z-score) [32]: -0.181
